Reference: patent US20170166621A1 (Novartis, published 2017)

T1: beta-klotho (UniProt Q86Z14 1-1044, limits assumed)
T1 sequence (looked up): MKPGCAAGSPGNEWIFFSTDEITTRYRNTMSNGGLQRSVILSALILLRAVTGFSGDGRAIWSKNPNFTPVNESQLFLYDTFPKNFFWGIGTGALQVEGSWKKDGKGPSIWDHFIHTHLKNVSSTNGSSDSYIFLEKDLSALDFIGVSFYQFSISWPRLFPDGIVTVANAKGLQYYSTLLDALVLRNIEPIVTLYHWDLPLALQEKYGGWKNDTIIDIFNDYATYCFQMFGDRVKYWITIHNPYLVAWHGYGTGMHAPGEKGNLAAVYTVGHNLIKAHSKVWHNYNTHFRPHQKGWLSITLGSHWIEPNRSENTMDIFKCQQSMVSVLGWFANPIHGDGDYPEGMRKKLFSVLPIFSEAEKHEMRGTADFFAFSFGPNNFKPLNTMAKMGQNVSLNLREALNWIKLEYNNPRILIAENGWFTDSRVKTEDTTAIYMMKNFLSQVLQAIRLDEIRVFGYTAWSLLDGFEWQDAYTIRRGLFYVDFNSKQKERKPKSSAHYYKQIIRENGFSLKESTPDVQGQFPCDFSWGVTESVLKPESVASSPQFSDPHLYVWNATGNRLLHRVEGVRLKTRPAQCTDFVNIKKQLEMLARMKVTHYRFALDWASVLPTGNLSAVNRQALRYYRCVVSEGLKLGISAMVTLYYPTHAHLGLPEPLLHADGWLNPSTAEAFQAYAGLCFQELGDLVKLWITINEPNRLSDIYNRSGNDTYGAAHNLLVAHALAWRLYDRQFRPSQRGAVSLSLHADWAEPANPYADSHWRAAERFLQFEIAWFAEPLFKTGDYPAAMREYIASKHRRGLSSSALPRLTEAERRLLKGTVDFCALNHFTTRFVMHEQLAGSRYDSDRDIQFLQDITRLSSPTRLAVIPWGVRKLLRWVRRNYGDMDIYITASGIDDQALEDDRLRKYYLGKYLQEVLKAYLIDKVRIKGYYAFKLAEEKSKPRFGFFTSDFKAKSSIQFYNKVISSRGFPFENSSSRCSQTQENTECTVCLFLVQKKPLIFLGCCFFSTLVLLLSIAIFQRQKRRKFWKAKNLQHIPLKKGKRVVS

T2: GLP-1R of INS1E rat insulinoma cells (rat, UniProt P32301 22-463)
T2 sequence (looked up): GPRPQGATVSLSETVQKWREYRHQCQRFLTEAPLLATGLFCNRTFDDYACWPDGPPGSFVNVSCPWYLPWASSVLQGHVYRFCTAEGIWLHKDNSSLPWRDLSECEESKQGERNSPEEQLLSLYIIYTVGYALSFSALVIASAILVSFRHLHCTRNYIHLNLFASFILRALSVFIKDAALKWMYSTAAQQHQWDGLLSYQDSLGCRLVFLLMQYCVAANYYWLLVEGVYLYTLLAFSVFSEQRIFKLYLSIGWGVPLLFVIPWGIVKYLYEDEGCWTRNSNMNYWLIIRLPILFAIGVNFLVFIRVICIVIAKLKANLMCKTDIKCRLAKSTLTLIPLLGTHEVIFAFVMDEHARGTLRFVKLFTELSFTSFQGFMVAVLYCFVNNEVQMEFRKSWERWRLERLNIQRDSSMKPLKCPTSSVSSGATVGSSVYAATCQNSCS


How the values were obtained:
Experiment in all cases: cell-based or functional assay
[1] = target: T1, beta-klotho
[2] = target: GLP-1 receptor (UniProt P43220 24-463, limits assumed)
[3] = target: T2, GLP-1R of INS1E rat insulinoma cells

% γ-max vs. WT FGF21 (pERK, HEK293-KLB) [1] [%]	Potency (Fold over WT FGF21) (pERK, HEK293-KLB) [1] [fold]	βklotho pERK EC50 (nM) [1] [nM]	GLP-1R EC50 [2] [nM]	GSIS EC50 (nM) (avg of 2) [3]	Binder
61	0.37	1	18.4	–	GLP-1(7-35; A8S)-Fc-GS-FGF21(33-209; Q55C-A109T-G148C-K150R-P158S-S195A-P199G-G202A) (Fc fusion) HSEGTFTSDVSSYLEGQAAKEFIAWLVK[skipping human IgG1 Fc with changes]GSDSSPLLQFGGQVRQRYLYTDDACQTEAHLEIREDGTVGGAADQSPESLLQLKALKPGVIQILGVKTSRFLCQRPDGTLYGSLHFDPEACSFRELLLEDGYNVYQSEAHGLPLHLPCNRSPHRDPASRGPARFLPLPGLPPALPEPPGILAPQPPDVGSSDPLAMVGGSQARSPSYAS
51	0.34	0.92	8.99	–	GLP-1(7-35; A8S)-Fc-GS-FGF21(33-209; Q55C-R105K-G148C-K150R-P158S-S195A-P199G-G202A) (Fc fusion) HSEGTFTSDVSSYLEGQAAKEFIAWLVK[skipping human IgG1 Fc with changes]GSDSSPLLQFGGQVRQRYLYTDDACQTEAHLEIREDGTVGGAADQSPESLLQLKALKPGVIQILGVKTSRFLCQKPDGALYGSLHFDPEACSFRELLLEDGYNVYQSEAHGLPLHLPCNRSPHRDPASRGPARFLPLPGLPPALPEPPGILAPQPPDVGSSDPLAMVGGSQARSPSYAS
89	0.37	1.24	5.9	–	GLP-1(7-35; A8S)-Fc-(GGGGS)3-FGF21(33-209; Q55C-R105K-G148C-K150R-P158S-S195A-P199G-G202A) (Fc fusion) HSEGTFTSDVSSYLEGQAAKEFIAWLVK[skipping human IgG1 Fc with changes]GGGGSGGGGSGGGGSDSSPLLQFGGQVRQRYLYTDDACQTEAHLEIREDGTVGGAADQSPESLLQLKALKPGVIQILGVKTSRFLCQKPDGALYGSLHFDPEACSFRELLLEDGYNVYQSEAHGLPLHLPCNRSPHRDPASRGPARFLPLPGLPPALPEPPGILAPQPPDVGSSDPLAMVGGSQARSPSYAS
70	0.21	1.01	0.252	128	GLP-1(7-35; A8S)-(GGGGS)-Fc-(GGGGS)3-FGF21(33-209; Q55C-R105K-G148C-K150R-P158S-S195A-P199G-G202A) (Fc fusion) HSEGTFTSDVSSYLEGQAAKEFIAWLVKGGGGGS[skipping human IgG1 Fc with changes]GGGGSGGGGSGGGGSDSSPLLQFGGQVRQRYLYTDDACQTEAHLEIREDGTVGGAADQSPESLLQLKALKPGVIQILGVKTSRFLCQKPDGALYGSLHFDPEACSFRELLLEDGYNVYQSEAHGLPLHLPCNRSPHRDPASRGPARFLPLPGLPPALPEPPGILAPQPPDVGSSDPLAMVGGSQARSPSYAS
50	0.21	0.55	0.023	4.6	GLP-1(7-35; A8S)-(GGGGS)3-Fc-GS-FGF21(33-209; Q55C-A109T-G148C-K150R-P158S-S195A-P199G-G202A) (Fc fusion) HSEGTFTSDVSSYLEGQAAKEFIAWLVKGGGGGSGGGGSGGGGS[skipping human IgG1 Fc with changes]GSDSSPLLQFGGQVRQRYLYTDDACQTEAHLEIREDGTVGGAADQSPESLLQLKALKPGVIQILGVKTSRFLCQRPDGTLYGSLHFDPEACSFRELLLEDGYNVYQSEAHGLPLHLPCNRSPHRDPASRGPARFLPLPGLPPALPEPPGILAPQPPDVGSSDPLAMVGGSQARSPSYAS
56	0.32	0.85	0.025	6.8	GLP-1(7-35; A8S)-(GGGGS)3-Fc-GS-FGF21(33-209; Q55C-R105K-G148C-K150R-P158S-S195A-P199G-G202A) (Fc fusion) HSEGTFTSDVSSYLEGQAAKEFIAWLVKGGGGGSGGGGSGGGGS[skipping human IgG1 Fc with changes]GSDSSPLLQFGGQVRQRYLYTDDACQTEAHLEIREDGTVGGAADQSPESLLQLKALKPGVIQILGVKTSRFLCQKPDGALYGSLHFDPEACSFRELLLEDGYNVYQSEAHGLPLHLPCNRSPHRDPASRGPARFLPLPGLPPALPEPPGILAPQPPDVGSSDPLAMVGGSQARSPSYAS
67	0.37	1.78	0.025	33	GLP-1(7-35; A8S)-(GGGGS)3-Fc-(GGGGS)3-FGF21(33-209; Q55C-R105K-G148C-K150R-P158S-S195A-P199G-G202A) (Fc fusion) HSEGTFTSDVSSYLEGQAAKEFIAWLVKGGGGGSGGGGSGGGGS[skipping human IgG1 Fc with changes]GGGGSGGGGSGGGGSDSSPLLQFGGQVRQRYLYTDDACQTEAHLEIREDGTVGGAADQSPESLLQLKALKPGVIQILGVKTSRFLCQKPDGALYGSLHFDPEACSFRELLLEDGYNVYQSEAHGLPLHLPCNRSPHRDPASRGPARFLPLPGLPPALPEPPGILAPQPPDVGSSDPLAMVGGSQARSPSYAS
101	1.2	2.1	0.024	–	GLP-1(7-35; A8S)-S(GGGGS)3A-Fc-(GGGGS)3-FGF21(33-209; Q55C-R105K-G148C-K150R-P158S-S195A-P199G-G202A) (Fc fusion) HSEGTFTSDVSSYLEGQAAKEFIAWLVKGGSGGGGSGGGGSGGGGSA[skipping human IgG1 Fc with changes]GGGGSGGGGSGGGGSDSSPLLQFGGQVRQRYLYTDDACQTEAHLEIREDGTVGGAADQSPESLLQLKALKPGVIQILGVKTSRFLCQKPDGALYGSLHFDPEACSFRELLLEDGYNVYQSEAHGLPLHLPCNRSPHRDPASRGPARFLPLPGLPPALPEPPGILAPQPPDVGSSDPLAMVGGSQARSPSYAS
97	5.8	9.8	0.042	–	GLP-1(7-35; A8S)-S(GGGGS)3A-Fc-(GGGGS)3-FGF21(33-209; Q55C-R105K-G148C-K150R-P158S-S195A-G202A-A208E) (Fc fusion) HSEGTFTSDVSSYLEGQAAKEFIAWLVKGGSGGGGSGGGGSGGGGSA[skipping human IgG1 Fc with changes]GGGGSGGGGSGGGGSDSSPLLQFGGQVRQRYLYTDDACQTEAHLEIREDGTVGGAADQSPESLLQLKALKPGVIQILGVKTSRFLCQKPDGALYGSLHFDPEACSFRELLLEDGYNVYQSEAHGLPLHLPCNRSPHRDPASRGPARFLPLPGLPPALPEPPGILAPQPPDVGSSDPLAMVGPSQARSPSYES
76	7.6	13	0.041	–	GLP-1(7-35; A8S)-S(GGGGS)3A-Fc-(GGGGS)3-FGF21(33-209; Q55C-R105K-G148C-P158S-K150R-S195A-G202A-A208D) (Fc fusion) HSEGTFTSDVSSYLEGQAAKEFIAWLVKGGSGGGGSGGGGSGGGGSA[skipping human IgG1 Fc with changes]GGGGSGGGGSGGGGSDSSPLLQFGGQVRQRYLYTDDACQTEAHLEIREDGTVGGAADQSPESLLQLKALKPGVIQILGVKTSRFLCQKPDGALYGSLHFDPEACSFRELLLEDGYNVYQSEAHGLPLHLPCNRSPHRDPASRGPARFLPLPGLPPALPEPPGILAPQPPDVGSSDPLAMVGPSQARSPSYDS
